Assay results published in patent publication US8178490B2, “Polybasic bacterial efflux pump inhibitors and therapeutic uses thereof” (priority 2007, dated 2012).
The name of at least one read-out is uncertain.

How the values were obtained:
[1] = tested on: Klebsiella pneumoniae KPM1004 overexpressing the AcrABTolC efflux pump; assay type: cell-based; settings: lowest inhibitor concentration giving antibacterial activity with azithromycin at 1/16 of its MIC; K. pneumoniae KPM1004
[2] = tested on: P. aeruginosa PAM1723, overexpressing the MexABOprM efflux pump; assay type: cell-based, Pseudomonas aeruginosa; settings: lowest inhibitor concentration giving antibacterial activity with levofloxacin at 1/8 of its MIC

SMILES	MPC16 (μg/mL) Azithromycin, KPM1004) [1]	MPC8 (μg/mL) (Levofloxacin, PAM1723) [2]
NCCN(CCN)C(=O)C[C@H](N)C(=O)N1CCC[C@H]1C(=O)N[C@@H](Cc1ccc(C(F)(F)F)cc1)C(=O)Nc1ccc2ncccc2c1 [Compound 442]	5 µg/mL	2.5 µg/mL
NCCN(CCN)C(=O)C[C@H](N)C(=O)N1CCC[C@@H]1C(=O)N[C@H](Cc1ccc(C(F)(F)F)cc1)C(=O)Nc1ccc2ncccc2c1 [Compound 443]	5 µg/mL	5 µg/mL
NCCN(CCN)C(=O)C[C@H](N)C(=O)N1CCC[C@H]1C(=O)N[C@@H](CCc1ccccc1)C(=O)Nc1ccc2ncccc2c1 [Compound 444]	>10 µg/mL	>10 µg/mL
NCCN(CCN)NC(=O)C[C@H](N)C(=O)N[C@@H](Cc1ccc(C(F)(F)F)cc1)C(=O)Nc1cccc(C(F)(F)F)c1 [Compound 446]	1.25 µg/mL	0.6 µg/mL
NCC(CN)C[C@H](N)C(=O)N[C@@H](CCC1CCCCC1)C(=O)Nc1cccc(C(F)(F)F)c1 [Compound 449]	0.63 µg/mL	1.25 µg/mL
NCCC(CCN)NC(=O)C[C@H](N)C(=O)N[C@@H](Cc1ccc(C(F)(F)F)cc1)C(=O)NCc1ccc(OC(F)(F)F)cc1 [Compound 450]	2.5 µg/mL	1.25 µg/mL
NCCN(C(=O)CN)c1ccc(C[C@H](N)C(=O)N[C@@H](CCc2ccccc2)C(=O)Nc2cccc(C(F)(F)F)c2)cc1 [Compound 451]	1.25 µg/mL	1.25 µg/mL
NCCN(CCN)C(=O)[C@@H]1CN[C@H](C(=O)N[C@@H](Cc2ccc(C(F)(F)F)cc2)C(=O)Nc2cccc(C(F)(F)F)c2)C1 [Compound 454]	1.25 µg/mL	0.63 µg/mL
NCC(=O)N1C[C@@H](CN)C[C@H]1C(=O)N[C@@H](Cc1ccc(C(F)(F)F)cc1)C(=O)Nc1cccc(C(F)(F)F)c1 [Compound 457]	1.25 µg/mL	2.5 µg/mL
NCCN(CCN)C(=O)C[C@H](N)C(=O)N[C@H](C(=O)Nc1ccc2ncccc2c1)[C@@H](S)c1ccc(C(F)(F)F)cc1 [Compound 464]	5 µg/mL	10 µg/mL
NCCN(CCN)C(=O)C[C@H](N)C(=O)N[C@H](C(=O)Nc1ccc2ncccc2c1)[C@@H](F)c1ccc(C(F)(F)F)cc1 [Compound 465]	10 µg/mL	2.5 µg/mL
